Source: the supplement of paper PMC9588766
Where a name gives a salt, the structure may show the parent alone. Whole data set: some 1,900 compounds, median “cell viability of compound + 1 nM pemigatinib relative to pemigatinib-only (DMSO) wells” near 0.95, cut for the lowest 2% near 0.22. This is one part of the list.

tested on: PDC-DUC18828; experiment: cell viability of compound + 1 nM pemigatinib relative to pemigatinib-only (DMSO) wells (fraction); PDC-DUC18828 is a patient-derived cholangiocarcinoma cell line; higher = less growth inhibition; conditions: first compound 1 µM; pemigatinib concentration 1 nM; 72 h
Method: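 Selleck Bioactive library screen in the patient-derived FGFR2 fusion-positive ICC cell line PDC-DUC18828 (500 cells/well). Each compound was tested at 1 uM with 1 nM pemigatinib, in triplicate, for 72 h. Viability was read by CellTiter-Glo and normalised to plate DMSO controls. Value is the paper's averaged normalised viability.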

| SMILES | cell viability |
| --- | --- |
| O=S(=O)(O)c1cc(O)ccc1O [Ethamsylate] + CCN1C(=O)N(c2c(F)c(OC)cc(OC)c2F)Cc2cnc3[nH]c(CN4CCOCC4)cc3c21 [pemigatinib] | 0.979 |
| CC(=O)Nc1nc(C)c(-c2ccc(Cl)c(S(=O)(=O)NCCO)c2)s1 + CCN1C(=O)N(c2c(F)c(OC)cc(OC)c2F)Cc2cnc3[nH]c(CN4CCOCC4)cc3c21 [pemigatinib] | 0.937 |
| COc1ccc(C2CNC(=O)C2)cc1OC1CCCC1 (stereo not drawn) [Rolipram] + CCN1C(=O)N(c2c(F)c(OC)cc(OC)c2F)Cc2cnc3[nH]c(CN4CCOCC4)cc3c21 [pemigatinib] | 1.02 |
| O=c1c(O)c(-c2ccc(O)cc2O)oc2cc(O)cc(O)c12 [Morin Hydrate] + CCN1C(=O)N(c2c(F)c(OC)cc(OC)c2F)Cc2cnc3[nH]c(CN4CCOCC4)cc3c21 [pemigatinib] | 0.947 |
| OC[C@H]1O[C@@H](Oc2cc(O)cc(/C=C/c3ccc(O)cc3)c2)[C@H](O)[C@@H](O)[C@@H]1O [Polydatin] + CCN1C(=O)N(c2c(F)c(OC)cc(OC)c2F)Cc2cnc3[nH]c(CN4CCOCC4)cc3c21 [pemigatinib] | 0.906 |
| COc1cc([C@@H]2c3cc4c(cc3[C@@H](O[C@@H]3O[C@@H]5CO[C@@H](C)O[C@H]5[C@H](O)[C@H]3O)[C@H]3COC(=O)[C@H]23)OCO4)cc(OC)c1O [Etoposide] + CCN1C(=O)N(c2c(F)c(OC)cc(OC)c2F)Cc2cnc3[nH]c(CN4CCOCC4)cc3c21 [pemigatinib] | 0.57 |
| CN(C)C(=S)NN=C(c1ccccn1)c1ccccn1 + CCN1C(=O)N(c2c(F)c(OC)cc(OC)c2F)Cc2cnc3[nH]c(CN4CCOCC4)cc3c21 [pemigatinib] | 0.302 |
| COc1ccccc1OCC(O)CN1CCN(CC(=O)Nc2c(C)cccc2C)CC1 (stereo not drawn) [Ranolazine 2HCl] + CCN1C(=O)N(c2c(F)c(OC)cc(OC)c2F)Cc2cnc3[nH]c(CN4CCOCC4)cc3c21 [pemigatinib] | 0.997 |
| COc1ccccc1OCC(O)CN1CCN(CC(=O)Nc2c(C)cccc2C)CC1 (stereo not drawn) [Ranolazine] + CCN1C(=O)N(c2c(F)c(OC)cc(OC)c2F)Cc2cnc3[nH]c(CN4CCOCC4)cc3c21 [pemigatinib] | 0.964 |
| O=C1c2ccc(Nc3ccc(F)cc3F)cc2CCc2ccc(OC[C@H](O)CO)cc21 [Skepinone-L] + CCN1C(=O)N(c2c(F)c(OC)cc(OC)c2F)Cc2cnc3[nH]c(CN4CCOCC4)cc3c21 [pemigatinib] | 0.908 |
| NC(=O)C(c1ccccc1)(c1ccccc1)[C@@H]1CCN(CCc2ccc3c(c2)CCO3)C1 [Darifenacin HBr] + CCN1C(=O)N(c2c(F)c(OC)cc(OC)c2F)Cc2cnc3[nH]c(CN4CCOCC4)cc3c21 [pemigatinib] | 0.894 |
| CCCNCC(O)COc1ccccc1C(=O)CCc1ccccc1 (stereo not drawn) [Propafenone HCl] + CCN1C(=O)N(c2c(F)c(OC)cc(OC)c2F)Cc2cnc3[nH]c(CN4CCOCC4)cc3c21 [pemigatinib] | 0.982 |
| C[C@H]1C[C@@H]2[C@H]([C@@H](O)C[C@@]3(C)[C@H]2CC[C@]3(O)C(=O)CO)[C@@]2(C)C=CC(=O)C=C12 [Methylprednisolone] + CCN1C(=O)N(c2c(F)c(OC)cc(OC)c2F)Cc2cnc3[nH]c(CN4CCOCC4)cc3c21 [pemigatinib] | 0.907 |
| CC(=O)O[C@]1(C(C)=O)CC[C@H]2[C@@H]3C[C@H](C)C4=CC(=O)CC[C@]4(C)[C@H]3CC[C@@]21C [Medroxyprogesterone acetate] + CCN1C(=O)N(c2c(F)c(OC)cc(OC)c2F)Cc2cnc3[nH]c(CN4CCOCC4)cc3c21 [pemigatinib] | 0.929 |
| O=C(O)c1cc(-c2ccccc2)nc2ccccc12 [Cinchophen] + CCN1C(=O)N(c2c(F)c(OC)cc(OC)c2F)Cc2cnc3[nH]c(CN4CCOCC4)cc3c21 [pemigatinib] | 1 |
| COc1cc2c(Oc3ccc4[nH]c(C)cc4c3F)ncnc2cc1OCCCN1CCCC1 [Cediranib (AZD2171)] + CCN1C(=O)N(c2c(F)c(OC)cc(OC)c2F)Cc2cnc3[nH]c(CN4CCOCC4)cc3c21 [pemigatinib] | 0.914 |
| CN(C)c1nc(N(C)C)nc(N(C)C)n1 [Altretamine] + CCN1C(=O)N(c2c(F)c(OC)cc(OC)c2F)Cc2cnc3[nH]c(CN4CCOCC4)cc3c21 [pemigatinib] | 0.927 |
| Nc1nc2n[nH]nc2c(=O)[nH]1 [Azaguanine-8] + CCN1C(=O)N(c2c(F)c(OC)cc(OC)c2F)Cc2cnc3[nH]c(CN4CCOCC4)cc3c21 [pemigatinib] | 0.961 |
| O=C(CCCN1CC=C(n2c(=O)[nH]c3ccccc32)CC1)c1ccc(F)cc1 [Droperidol] + CCN1C(=O)N(c2c(F)c(OC)cc(OC)c2F)Cc2cnc3[nH]c(CN4CCOCC4)cc3c21 [pemigatinib] | 0.938 |
| CCO[C@@H]1OC(=O)C[C@@H]1NC(=O)[C@@H]1CCCN1C(=O)[C@@H](NC(=O)c1ccc(N)c(Cl)c1)C(C)(C)C + CCN1C(=O)N(c2c(F)c(OC)cc(OC)c2F)Cc2cnc3[nH]c(CN4CCOCC4)cc3c21 [pemigatinib] | 1.01 |
| CCn1cc(C(=O)O)c(=O)c2ccc(C)nc21 [Nalidixic acid] + CCN1C(=O)N(c2c(F)c(OC)cc(OC)c2F)Cc2cnc3[nH]c(CN4CCOCC4)cc3c21 [pemigatinib] | 0.96 |
| COc1ccc(-c2oc3c(CC=C(C)C)c(O[C@@H]4O[C@H](CO)[C@@H](O)[C@H](O)[C@H]4O)cc(O)c3c(=O)c2O[C@@H]2O[C@@H](C)[C@H](O)[C@@H](O)[C@H]2O)cc1 [Icariin] + CCN1C(=O)N(c2c(F)c(OC)cc(OC)c2F)Cc2cnc3[nH]c(CN4CCOCC4)cc3c21 [pemigatinib] | 0.948 |
| COc1ccc2cc(CCC(C)=O)ccc2c1 [Nabumetone] + CCN1C(=O)N(c2c(F)c(OC)cc(OC)c2F)Cc2cnc3[nH]c(CN4CCOCC4)cc3c21 [pemigatinib] | 0.969 |
